# Source: PubChem BioAssay AID1745853 (National Center for Advancing Translational Sciences (NCATS), 2022)
# This is one part of the list. Further columns of the screen follow, without active or inactive calls.
# Columns and labels:
# Assay in all cases: Primary Screen for Target Class Profiling of Small Molecule Inhibitors of Methyltransferases
# [1] = biological target: Glycine N-methyltransferase (Homo sapiens) (UniProt Q14749); settings: purified enzyme, MTase-Glo SAH luminescence; measured here: GNMT inhibition; at 40 µM; stronger effect = lower value
# Outline: (§1)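 Each enzyme was reacted with SAM and its substrate, with compounds tested once at 40 uM; SAH formed was read by MTase-Glo luminescence.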
# [2] = biological target: Guanidinoacetate N-methyltransferase (Homo sapiens) (UniProt Q14353); settings: purified enzyme, MTase-Glo SAH luminescence; measured here: GAMT inhibition; at 40 µM; stronger effect = lower value
# Outline: as §1
# [3] = biological target: Histamine N-methyltransferase (Homo sapiens) (UniProt P50135); settings: purified enzyme, MTase-Glo SAH luminescence; measured here: HNMT inhibition; at 40 µM; stronger effect = lower value
# Outline: as §1
# [4] = biological target: Nicotinamide N-methyltransferase (Homo sapiens) (UniProt P40261); settings: purified enzyme, MTase-Glo SAH luminescence; measured here: NNMT inhibition; at 40 µM; stronger effect = lower value
# Outline: as §1
# [5] = biological target: Phenylethanolamine N-methyltransferase (Homo sapiens) (UniProt P11086); settings: purified enzyme, MTase-Glo SAH luminescence; measured here: PNMT inhibition; at 40 µM; stronger effect = lower value
# Outline: as §1
# % is set by controls: 0 for no effect and ±100 for the full control effect.
smiles,measurement,setting,value
CC1CCCCC1NC(=O)C1(C)Cn2c(cc3occc32)C(=O)N1Cc1ccc(Cl)cc1 (configuration not stated),"activity change, negative = inhibition",[1],5.08%
same,"activity change, negative = inhibition",[2],2.31%
same,"activity change, negative = inhibition",[3],7.02%
same,"activity change, negative = inhibition",[4],3.51%
same,"activity change, negative = inhibition",[5],4.25%
CN1CCOc2c(C(=O)NCc3cnn(C)c3)cc(-c3ccc([S+](C)(=O)[O-])cc3)cc21,"activity change, negative = inhibition",[1],-8.16%
same,"activity change, negative = inhibition",[2],-3.66%
same,"activity change, negative = inhibition",[3],-4.43%
same,"activity change, negative = inhibition",[4],-12.7%
same,"activity change, negative = inhibition",[5],-10.2%
Cn1ccnc1,"activity change, negative = inhibition",[1],-2.35%
same,"activity change, negative = inhibition",[2],5.93%
same,"activity change, negative = inhibition",[3],2.15%
same,"activity change, negative = inhibition",[4],-7.47%
same,"activity change, negative = inhibition",[5],1.75%
COc1cccc(CN2C(=O)c3ccc(-c4ccco4)n3CC2(C)C(=O)NC2CCCC2)c1 (configuration not stated),"activity change, negative = inhibition",[1],-10.1%
same,"activity change, negative = inhibition",[2],-13.8%
same,"activity change, negative = inhibition",[3],2.89%
same,"activity change, negative = inhibition",[4],-15.7%
same,"activity change, negative = inhibition",[5],-8.88%
CC(C)CCn1c(=O)c2ccc(C(=O)NC(C)C)cc2n2c(=O)n(CC(=O)Nc3ccccc3F)nc12,"activity change, negative = inhibition",[1],8.04%
same,"activity change, negative = inhibition",[2],0.321%
same,"activity change, negative = inhibition",[3],2.81%
same,"activity change, negative = inhibition",[4],8.59%
same,"activity change, negative = inhibition",[5],7.96%
Cc1ccc(N2C(=O)c3cc4occc4n3CC2(C)C(=O)NC2CCCCCCC2)c(C)c1 (configuration not stated),"activity change, negative = inhibition",[1],0.401%
same,"activity change, negative = inhibition",[2],0%
same,"activity change, negative = inhibition",[3],7.33%
same,"activity change, negative = inhibition",[4],5.01%
same,"activity change, negative = inhibition",[5],2.15%
CCN(CC)CCOC(=O)c1ccc(N)cc1,"activity change, negative = inhibition",[1],9.74%
same,"activity change, negative = inhibition",[2],12.5%
same,"activity change, negative = inhibition",[3],12.4%
same,"activity change, negative = inhibition",[4],-3.45%
same,"activity change, negative = inhibition",[5],0.318%
CC1(C(=O)NC2CCCCC2)Cn2nc(-c3cccs3)cc2C(=O)N1Cc1ccc(Cl)cc1 (configuration not stated),"activity change, negative = inhibition",[1],2.08%
same,"activity change, negative = inhibition",[2],1.01%
same,"activity change, negative = inhibition",[3],7.17%
same,"activity change, negative = inhibition",[4],11.9%
same,"activity change, negative = inhibition",[5],2.55%
CC1(C(=O)NC2CCCCC2)Cn2c(ccc2-c2ccco2)C(=O)N1Cc1ccc(F)cc1 (configuration not stated),"activity change, negative = inhibition",[1],-2.76%
same,"activity change, negative = inhibition",[2],4.4%
same,"activity change, negative = inhibition",[3],2.89%
same,"activity change, negative = inhibition",[4],-3.21%
same,"activity change, negative = inhibition",[5],-3.38%
Cc1ncoc1C(=O)N1CCC2(CC1)CC(N(Cc1ccccc1)C1CC1)CCO2 (configuration not stated),"activity change, negative = inhibition",[1],-0.926%
same,"activity change, negative = inhibition",[2],-1.68%
same,"activity change, negative = inhibition",[3],-0.443%
same,"activity change, negative = inhibition",[4],-3.6%
same,"activity change, negative = inhibition",[5],1.26%
Cc1ccc(CN2CCCc3nc(C)nc(-c4ccc(O)cc4)c3C2)cc1,"activity change, negative = inhibition",[1],-10.7%
same,"activity change, negative = inhibition",[2],-9.66%
same,"activity change, negative = inhibition",[3],-9.6%
same,"activity change, negative = inhibition",[4],-17.7%
same,"activity change, negative = inhibition",[5],-15.1%
CN(CC(=O)NCCc1ccccc1)S(=O)(=O)c1ccc2[nH]c3c(c2c1)CCCC3,"activity change, negative = inhibition",[1],3%
same,"activity change, negative = inhibition",[2],1.82%
same,"activity change, negative = inhibition",[3],-1.08%
same,"activity change, negative = inhibition",[4],-1.44%
same,"activity change, negative = inhibition",[5],3.95%
COc1ccc(NC(=O)CCc2ccnc(N3CCCC3)c2)c(OC)c1,"activity change, negative = inhibition",[1],-5.27%
same,"activity change, negative = inhibition",[2],-3.22%
same,"activity change, negative = inhibition",[3],-79%
same,"activity change, negative = inhibition",[4],-7.22%
same,"activity change, negative = inhibition",[5],-1.91%
O=C(NC[C@H]1Cn2ccnc2CO1)C1CCCC1,"activity change, negative = inhibition",[1],-1.44%
same,"activity change, negative = inhibition",[2],-3.52%
same,"activity change, negative = inhibition",[3],-0.667%
same,"activity change, negative = inhibition",[4],-0.781%
same,"activity change, negative = inhibition",[5],-4.36%
CCOCCCNC(=O)C1c2c(n(C)c3ccccc23)SCC(=O)N1c1ccc(Cl)cc1 (configuration not stated),"activity change, negative = inhibition",[1],5.14%
same,"activity change, negative = inhibition",[2],0%
same,"activity change, negative = inhibition",[3],-0.52%
same,"activity change, negative = inhibition",[4],3.97%
same,"activity change, negative = inhibition",[5],6.51%
COC(=O)C(Cc1ccc(OCCn2c(=O)sc3cc(C(=O)c4ccccc4)ccc32)cc1)C(=O)OC,"activity change, negative = inhibition",[1],3.75%
same,"activity change, negative = inhibition",[2],-15.2%
same,"activity change, negative = inhibition",[3],8.55%
same,"activity change, negative = inhibition",[4],-20.7%
same,"activity change, negative = inhibition",[5],-9.89%
O=C1CCC[C@@H]2[C@H]3CCC[N+]4([O-])CCC[C@@H](CN12)[C@@H]34 (some centres not stated),"activity change, negative = inhibition",[1],1.08%
same,"activity change, negative = inhibition",[3],8.96%
O=C([C@@H]1C[C@@H]2C=C[C@H]1C2)N1CCc2c(nc(-c3cccnc3)[nH]c2=O)C1,"activity change, negative = inhibition",[1],-2.38%
same,"activity change, negative = inhibition",[2],1.68%
same,"activity change, negative = inhibition",[3],1.22%
same,"activity change, negative = inhibition",[4],-1.64%
same,"activity change, negative = inhibition",[5],-2.7%
Cc1noc(C)c1-c1nccc2c(=O)cc(-c3ccccn3)oc12,"activity change, negative = inhibition",[1],-1.81%
same,"activity change, negative = inhibition",[2],2.13%
same,"activity change, negative = inhibition",[3],-1.46%
same,"activity change, negative = inhibition",[4],-28.4%
same,"activity change, negative = inhibition",[5],-11.2%
Cc1ccc(C)c(NC(=O)N2CCn3cccc3C2C(C)C)c1 (configuration not stated),"activity change, negative = inhibition",[1],11.5%
same,"activity change, negative = inhibition",[2],1.32%
same,"activity change, negative = inhibition",[3],5.8%
same,"activity change, negative = inhibition",[4],8.28%
same,"activity change, negative = inhibition",[5],8.03%
COc1ccc(S(N)(=O)=O)cc1C(=O)N1CCC2(CN(C)C(=O)O2)C1 (configuration not stated),"activity change, negative = inhibition",[1],-3.98%
same,"activity change, negative = inhibition",[2],-5.76%
same,"activity change, negative = inhibition",[3],-4.15%
same,"activity change, negative = inhibition",[4],-9.89%
same,"activity change, negative = inhibition",[5],2%
CC(=O)OC[C@]12[C@H](OC(C)=O)C(=O)[C@@H]3[C@@H](OC(C)=O)[C@@]14O[C@@]3(C)COC(=O)c1cccnc1[C@@H](C)[C@H](C)C(=O)O[C@@H]([C@H](OC(C)=O)[C@@H]2OC(C)=O)[C@]4(C)O,"activity change, negative = inhibition",[1],0%
same,"activity change, negative = inhibition",[2],5.48%
same,"activity change, negative = inhibition",[3],10.6%
same,"activity change, negative = inhibition",[4],-8.21%
same,"activity change, negative = inhibition",[5],0.203%
COc1ccc(OC)c(CCNC(=O)Cn2ccc3cc(S(=O)(=O)N4CCCC4)ccc32)c1,"activity change, negative = inhibition",[1],5.81%
same,"activity change, negative = inhibition",[2],0%
same,"activity change, negative = inhibition",[3],7.71%
same,"activity change, negative = inhibition",[4],2.54%
same,"activity change, negative = inhibition",[5],6.5%
CC1(C(=O)NC2CCCCCCC2)Cn2c(cc3occc32)C(=O)N1CC1CCCO1 (configuration not stated),"activity change, negative = inhibition",[1],-0.392%
same,"activity change, negative = inhibition",[2],0%
same,"activity change, negative = inhibition",[3],6.61%
same,"activity change, negative = inhibition",[4],-6.1%
same,"activity change, negative = inhibition",[5],1.52%
CCNC(=O)N[C@H]1[C@H](O)[C@H](O)C[C@@H]1c1cncnc1,"activity change, negative = inhibition",[1],-4.52%
same,"activity change, negative = inhibition",[2],-7.92%
same,"activity change, negative = inhibition",[3],-4.32%
same,"activity change, negative = inhibition",[4],-4.46%
same,"activity change, negative = inhibition",[5],4.12%
O=C(C1CCCNC1)N1CCCn2cc(-c3ccccc3F)nc21 (configuration not stated),"activity change, negative = inhibition",[1],-2.51%
same,"activity change, negative = inhibition",[2],1.64%
same,"activity change, negative = inhibition",[3],-8.87%
same,"activity change, negative = inhibition",[4],-10.3%
same,"activity change, negative = inhibition",[5],-21.4%
CCCOc1nccnc1NC1CCN(C(=O)c2cccnc2)CC1,"activity change, negative = inhibition",[1],-1.88%
same,"activity change, negative = inhibition",[2],-4.6%
same,"activity change, negative = inhibition",[3],0.051%
same,"activity change, negative = inhibition",[4],-6.71%
same,"activity change, negative = inhibition",[5],-6.71%
COc1ccc2c(c1)c(NC(C)=O)c1n2CC(C)(C(=O)NC2CCCCCC2)N(CCN(C)C)C1=O (configuration not stated),"activity change, negative = inhibition",[1],2.73%
same,"activity change, negative = inhibition",[2],0%
same,"activity change, negative = inhibition",[3],6.73%
same,"activity change, negative = inhibition",[4],11.4%
same,"activity change, negative = inhibition",[5],4.92%
CCOc1ccccc1CNC(=O)C(C)n1ccc2cc(S(=O)(=O)N3CCCC3)ccc21 (configuration not stated),"activity change, negative = inhibition",[1],0.03%
same,"activity change, negative = inhibition",[2],0.785%
same,"activity change, negative = inhibition",[3],-2.68%
same,"activity change, negative = inhibition",[4],-4.93%
same,"activity change, negative = inhibition",[5],-0.459%
CC(C)c1nc(N2CCOCC2)ncc1C(=O)O,"activity change, negative = inhibition",[1],0.63%
same,"activity change, negative = inhibition",[2],-0.987%
same,"activity change, negative = inhibition",[3],3.11%
same,"activity change, negative = inhibition",[4],-0.796%
same,"activity change, negative = inhibition",[5],-0.288%
CCc1ccccc1N1C(=O)CSc2c(c3ccccc3n2C)C1C(=O)NCc1ccc(F)cc1 (configuration not stated),"activity change, negative = inhibition",[1],-2.56%
same,"activity change, negative = inhibition",[2],0%
same,"activity change, negative = inhibition",[3],7.87%
same,"activity change, negative = inhibition",[4],0.986%
same,"activity change, negative = inhibition",[5],11.3%
